The chains are these.
B1: chr21:46004801:46004902:+|3pUTR|ENSG00000142156|msi1|total|mutant (ssRNA)
RNA: GGGAGUUCUACAGUCCGACGAUCAGACUGGGGCCUGGACUGGACAUGAGAGCCCCUUGGUGCCACAGAGGGCUGUGUCUUACCCGAAACAACGCAAACCUCUCCUUCCUCAGAACCGUGAUGUGUUCGACGUUUUAUCAAAGGCAACAGAGGAUUGAGCAUCA
B2: chr1:23559171:23559278:-|CDS|ENSG00000117318|unk|total|mutant (ssRNA)
RNA: GGGAGUUCUACAGUCCGACGAUCAACCACUGCUACUCCCGCCUGCGGGAACUGGUACCCGGAGUCCCGAGAGGCACUCAGCUCCGCCAGGUGGAAAUCCUACAGCGCGUCAUCGACUACAUUCUCGACCUGCAGGCCGUCCUGCAACAGAGGAUUGAGCAUCA
B3: chr2:37644049:37644150:-|3pUTR|ENSG00000163171|msi1|total|mutant (ssRNA)
RNA: GGGAGUUCUACAGUCCGACGAUCUCCGGACAACUAACCAAGCCGACGAAACAAGUUCCCCCCGGCAGGGGUGUCCAAUAUUUCCGCUUCCCUGGACCGCAUUGGAAGAAUUUUCUUGGGCCACAUGUAAAACACACUAACACUCAACAGAGGAUUGAGCAUCA
B4: ENSG00000119396:stop:overlap|stop_codon|ENSG00000119396|stop_codon|NA|stop_codon (ssRNA)
RNA: GGGAGUUCUACAGUCCGACGAUCCCCCGCAGGGAGGCCGGCUAACCAGUGAACCCCAACCCCAGAGAGAAGGCUGUGGCUGCUAGUGACCUCUUUGCUGUGGCCCCUCAUUUGACCUUUCACCUCUGUCUGUUGGAAGCAGUACAACAGAGGAUUGAGCAUCA
B5: chr1:32196777:32196878:+|3pUTR|ENSG00000084652|msi1|total|mutant (ssRNA)
RNA: GGGAGUUCUACAGUCCGACGAUCUUUGAAGCCCGUUCAUUGUCCUGCAGGUCCCUUCAUCUUCCAUACCCCGCCCACUCUUUCCGCCCUUACCUUAAAUCUCUCAGAUAAGUUGGUUCACAAAGAAUGUUAAGUACUGAAUCACAACAGAGGAUUGAGCAUCA
B6: chr15:69268886:69268987:+|CDS|ENSG00000138604|unk|total|mutant (ssRNA)
RNA: GGGAGUUCUACAGUCCGACGAUCGGAGUUAAAGCUGUGUUUAUGAAUAAACAUGACUGGUAUGAAGAAUAUCCAACCACACCCCGCUCUUUUGUUUUAAAUGGCUUUAUGUAUUCUUUAAUUGGGCUGUAUGACUUAAAAGAACAACAGAGGAUUGAGCAUCA
B7: chr17:80395157:80395266:+|3pUTR|ENSG00000173821|unk|total|mutant (ssRNA)
RNA: GGGAGUUCUACAGUCCGACGAUCCUUCAAAGCCUUAACUGUCAAAUCUUGCAUUAUCUUGUUUGUACAGAAAUAUACUGGCCCCGCAGAGGCAAAAAAAAAAAAAAUGAAUUUUAUUUUACUUGUCACACCUGUCUUAAUAAACAACAGAGGAUUGAGCAUCA
B8: chr16:46702281:46707703:-|three_prime_utr|ENSG00000140795|control|control|control (ssRNA)
RNA: GGGAGUUCUACAGUCCGACGAUCUCACUACGUGUGAAAUGCUCUGAGUACCUUUCAAAUAUACCUACUUUUGGUGGUAAGUGUAGGGAUGCUUUAGGUAGGUACUUUGCAUCUGUCGAAUUUAAAUUCUAAACUCACACUGAUCAACAGAGGAUUGAGCAUCA
B9: chr3:152464585:152464701:+|3pUTR|ENSG00000152601|msi1|FALSE|unique (ssRNA)
RNA: GGGAGUUCUACAGUCCGACGAUCAUAUUUUUGAAAUCCCUGAGUAUCAGGCCUUGUUAUAAAUAAGCUGCAUAAUCAAUAAAUAGAACAAGGGACUUUUUGUUGAUAAUCCAAAUACUCAAAGUUUACGUAAUGAAAAUUAUACAACAGAGGAUUGAGCAUCA
B10: ENSG00000124766:be:win_3701|3pUTR|ENSG00000124766|bound_else_gene|NA|bound_elsewhere_windowed (ssRNA)
RNA: GGGAGUUCUACAGUCCGACGAUCUCAGGUUUAUAGCUGUUGUGUUUAAAAAUUGAAAAAAGUGGAAAACAUCUUUGUACAUUUAAGUCUGUAUUAUAAUAAGCAAAAAGAUUGUGUGUAUGUAUGUUUAAUAUAACAUGACAGCAACAGAGGAUUGAGCAUCA
B11: chr12:108645191:108645284:-|3pUTR|ENSG00000110880|msi1_unk|total|mutant (ssRNA)
RNA: GGGAGUUCUACAGUCCGACGAUCUCUUUUUUUUUUUUUUUUUUUAAGCCAUGACAUCCCAGAAGAGGACAGUGAAUUACUCCCCGGUCGGCUCUUACCGAGUGGCCACCGUGUUCUGUCAAAACACUUGCUUCCAUUUUCAGACAACAGAGGAUUGAGCAUCA
B12: chr3:51403142:51403395:-|CDS|ENSG00000145041|control|control|control (ssRNA)
RNA: GGGAGUUCUACAGUCCGACGAUCCGCAGGGGAAGAUGGGGACAAUGACUUCUCUCCCUCUGAUGAGGAGCUAGCAAACCUUCUAGAGGAGGGAGAGGACGGGGAGGAUGAAGACUCUGAUGCAGAUGAGGAGGUGGAACUGAUCAACAGAGGAUUGAGCAUCA
B13: chr18:70325936:70326038:+|CDS|ENSG00000170677|unk|FALSE|unique (ssRNA)
RNA: GGGAGUUCUACAGUCCGACGAUCAGCUUUCGCUCCCAUGGUAAAACACUUCACACUAGAAUUGAGCACUCAAAUGGUAGGUUUAGCUUUUAUGAACAGCCAGAUGUGGAAGGACAUACGUCCAUAGUUGAUCUAAUUGAGCAUCAACAGAGGAUUGAGCAUCA
B14: chr16:1999495:2000256:-|CDS|ENSG00000167962|control|control|control (ssRNA)
RNA: GGGAGUUCUACAGUCCGACGAUCUGGCACCGCCCCCACCAGCCUUGUCUCUGCCUGGAACAGCAGCAGUAGCAGCAAGAAGGUAGCACAGCCCCCACUCUCGGCGCAGGCUACCGGCAGCGGCCAGCCCACCAGGAAGGCUGGCAACAGAGGAUUGAGCAUCA
B15: chr3:66380370:66380471:-|CDS|ENSG00000144749|msi1|FALSE|unique (ssRNA)
RNA: GGGAGUUCUACAGUCCGACGAUCCGGUCAAGUGGGGGUCUGACAGGUUCGUUCUUUCCUUGUAGGGGAUUCUUCCUGGACUUUAGCAAGGUUGUAUCACCCGGACUCCACAGAGCUACAGCCUGCAUCUUCAUUAACUUCAGGCAACAGAGGAUUGAGCAUCA
B16: ENSG00000198589:be:win_8851|3pUTR|ENSG00000198589|bound_else_gene|NA|bound_elsewhere_windowed (ssRNA)
RNA: GGGAGUUCUACAGUCCGACGAUCUUAUUCCAGCUAUAAUAUUAUGAAGAACAUUUCCCAUGCAUCUACAAGCUUGAGAAAUAGGAUUUUCACAGUGGGGAAGUGGGUUACAAUAUUGGAAUAGGAAAAUUUGAUGCUGUAAUUCAACAGAGGAUUGAGCAUCA
B17: chr7:5620113:5620210:-|3pUTR|ENSG00000011275|msi1_unk|FALSE|overlapping (ssRNA)
RNA: GGGAGUUCUACAGUCCGACGAUCGUCACUUUGUAUAAAAACAAGAAACGAUUAGUUCAUUAAACUUUUUCUUUACCUUCUGGUAGUAAAAAUAGAUAAAAUAAUUCCGUUUCAACUACUGUGUGUAAAAAGCCUGUAUCAUAUCAACAGAGGAUUGAGCAUCA
B18: chr1:43978039:43978149:+|3pUTR|ENSG00000117410|unk|total|mutant (ssRNA)
RNA: GGGAGUUCUACAGUCCGACGAUCGGCCGUGCCUCACUUUUAUUUAUUGCUGGUUUUCCUGGGACAGCUGGAGCUGUGUCCCUCCGCCUUUCAGAGGCUUGGUGUUCAGGGCCCUCCCUGCACUCCCCUCUUGCUGCGUGUUGACAACAGAGGAUUGAGCAUCA
B19: chr16:2457226:2457327:+|3pUTR|ENSG00000162063|unk|FALSE|unique (ssRNA)
RNA: GGGAGUUCUACAGUCCGACGAUCCAAGCCAUCAGAAUGUUGAAAUGAGGGUGAAGAGCUCAGAUCCCUCUCUUUGGAAAGUUUAGCCUGGAAGCAGUUGGCCACACUGUGUGGAGGGCACCUCUCUGUCCCUUCCGUGUCUCACAACAGAGGAUUGAGCAUCA
B20: chr3:11557766:11557867:-|3pUTR|ENSG00000144560|msi1|total|mutant (ssRNA)
RNA: GGGAGUUCUACAGUCCGACGAUCCUGGACUGCAGACUCUACCAAUCACGGGCAUUUUAUCUUCUCUGAACACUGCAGUUUGUCCGACCCGAGCUGAGGUUGGAGGAUUCCACCGUGCUUUAAACGUGAUGCAUGUUUUAAUGGCAACAGAGGAUUGAGCAUCA
B21: chr7:92141642:92142809:-|three_prime_utr|ENSG00000240720|control|control|control (ssRNA)
RNA: GGGAGUUCUACAGUCCGACGAUCAACAGUUUCUUUUGGAUCUUUUUGCAGAGCUACUAUGGAAGAUGCACUCUUUCUGCGGGUAGGUUAUGAGUCUUUUAGUCUUGGUAUAUCAUGCACAGUGUGUAGUAGUCUGCCGAGAGCCAACAGAGGAUUGAGCAUCA
B22: chr12:57820040:57820141:-|3pUTR|ENSG00000175215|msi1|total|mutant (ssRNA)
RNA: GGGAGUUCUACAGUCCGACGAUCUUUUGCUUAUCAUGUUCCAUUUCGUGCCGCUUUCCCCCUUCAAGAUGCCAUUUGGAGGGCCGGGGAUCUGCUUCCCACUGUGACUGGGCUAUGGGAUUCUGACUACCUUGCUUACAGAUUCAACAGAGGAUUGAGCAUCA

Consider 22 molecules from PMC12136788.

The other results are listed elsewhere or left out.

This test addresses MSI1 full-length (mouse, UniProt Q61474 1-362). Briefly: nsRBNS (natural sequence RNA bind-n-seq); RBNS binding buffer (assumed for nsRBNS): 25 mM Tris pH 7.5, 150 mM KCl, 3 mM MgCl2, 0.01% Triton X-100, 500 ug/ml BSA, 20 U/ml SUPERase-In, 4 C; UNK is unkempt and MSI1 is Musashi-1; names of the RNAs are library labels; protein concentration not given here; high values mean tight binding.
Sequence of UniProt Q61474 (Q61474 whole entry): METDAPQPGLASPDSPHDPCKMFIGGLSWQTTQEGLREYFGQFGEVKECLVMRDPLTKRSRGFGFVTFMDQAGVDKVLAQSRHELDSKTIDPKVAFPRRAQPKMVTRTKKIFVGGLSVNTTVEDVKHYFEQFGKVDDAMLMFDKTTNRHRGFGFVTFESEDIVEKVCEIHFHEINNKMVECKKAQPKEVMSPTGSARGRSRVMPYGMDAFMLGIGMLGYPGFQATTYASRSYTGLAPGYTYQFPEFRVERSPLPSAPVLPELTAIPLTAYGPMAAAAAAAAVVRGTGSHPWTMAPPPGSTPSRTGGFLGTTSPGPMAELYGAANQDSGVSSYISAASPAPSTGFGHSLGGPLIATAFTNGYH
With B1, the binding signal is 0.524 enrichment R.
B2 returned a binding signal of 0.491 enrichment R.
For B3, the binding signal was found to be 0.397 enrichment R.
Turning to B4, the binding signal came out at 0.669 enrichment R.
The result for B5 reads 0.851 enrichment R; that for B6, 0.447 enrichment R.
Molecule B7 returned a binding signal of 0.503 enrichment R.
Molecule B8 had a binding signal of 0.327 enrichment R.
As to B9, the binding signal is 0.698 enrichment R.
As to B10, the binding signal was 1.6 enrichment R.
The molecule B11 registered a binding signal of 2.3 enrichment R.
The figure for B12 is 0.631 enrichment R; for B13 it is 2.06 enrichment R; for B14 it is 0.33 enrichment R.
Molecule B15 had a binding signal of 0.608 enrichment R.
Molecule B16 displayed a binding signal of 0.517 enrichment R.
B17 gave a binding signal of 1.15 enrichment R.
For the molecule B18, the binding signal was 0.56 enrichment R.
Consider B19, for which the binding signal was determined as 0.351 enrichment R.
The result for B20 reads 0.363 enrichment R; that for B21, 1.27 enrichment R.
B22: the binding signal came to 0.57 enrichment R.
